Test results from EPA's CvTdb concentration-time database.
Further values from the same series stand in other lists.

Legend:
Assay in all cases: concentration in plasma after dosing
[1] = system: Rat; conditions: dosed: Perfluorodecanoic acid, 2 mg/kg, oral, Male, Harlan Sprague Dawley
[2] = system: Rat; conditions: 1 h; dosed: Perfluorodecanoic acid; 10 mg/kg; oral; Male; Harlan Sprague Dawley
[3] = system: Rat; conditions: 1 h; dosed: Perfluorodecanoic acid; 10 mg/kg; oral; Female; Harlan Sprague Dawley
[4] = system: Rat; conditions: dosed: Perfluorodecanoic acid, 20 mg/kg, oral, Male, Harlan Sprague Dawley
[5] = system: Rat; conditions: dosed: Perfluorodecanoic acid, 10 mg/kg, oral, Female, Harlan Sprague Dawley
[6] = system: Rat; conditions: dosed: Perfluorodecanoic acid, 20 mg/kg, oral, Male, Harlan Sprague Dawley; remark: listed apart in the source
[7] = system: Rat; conditions: dosed: Perfluorodecanoic acid, 2 mg/kg, oral, Male, Harlan Sprague Dawley; remark: listed apart in the source
[8] = system: Rat; conditions: 1 h; dosed: Perfluorodecanoic acid; 10 mg/kg; oral; Male; Harlan Sprague Dawley; remark: listed apart in the source
[9] = system: Rat; conditions: dosed: Perfluorooctane Sulfonate, 20 mg/kg, oral, Female, F344
[10] = system: Rat; conditions: dosed: Perfluorooctane Sulfonate, 2 mg/kg, oral, Female, Harlan Sprague Dawley
[11] = system: Rat; conditions: 6 h; dosed: Perfluorooctane Sulfonate; 20 mg/kg; oral; Female; F344
[12] = system: Rat; conditions: 24 h; dosed: Perfluorooctane Sulfonate; 20 mg/kg; oral; Male; Harlan Sprague Dawley
[13] = system: Rat; conditions: 3360 h; dosed: Perfluorooctane Sulfonate; 20 mg/kg; oral; Male; Harlan Sprague Dawley
[14] = system: Rat; conditions: dosed: Fluorotelomer alcohol 8+2, 48 mg/kg, oral, Male, Harlan Sprague Dawley
[15] = system: Rat; conditions: dosed: Perfluorooctanoic acid, 40 mg/kg, oral, Male, Harlan Sprague Dawley
[16] = system: Rat; conditions: 12 h; dosed: Fluorotelomer alcohol 8+2; 24 mg/kg; oral; Male; Harlan Sprague Dawley
[17] = system: Rat; conditions: dosed: Fluorotelomer alcohol 8+2, 40 mg/kg, oral, Female, Harlan Sprague Dawley
[18] = system: Rat; conditions: dosed: Perfluorooctanoic acid, 40 mg/kg, iv, Male, F344
[19] = system: Rat; conditions: 96 h; dosed: Perfluorooctanoic acid; 80 mg/kg; oral; Female; Harlan Sprague Dawley
[20] = system: Rat; conditions: 192 h; dosed: Perfluorooctanoic acid; 12 mg/kg; oral; Male; Harlan Sprague Dawley
[21] = system: Rat; conditions: dosed: Perfluorooctanoic acid, 48 mg/kg, oral, Male, Harlan Sprague Dawley
[22] = system: Rat; conditions: 3 h; dosed: Perfluorooctanoic acid; 12 mg/kg; oral; Male; Harlan Sprague Dawley
[23] = system: Rat; conditions: dosed: Perfluorooctanoic acid, 40 mg/kg, oral, Male, Harlan Sprague Dawley; remark: listed apart in the source
[24] = system: Rat; conditions: 24 h; dosed: Perfluorooctanoic acid; 80 mg/kg; oral; Female; Harlan Sprague Dawley
[25] = system: Rat; conditions: dosed: Perfluorooctanoic acid, 48 mg/kg, oral, Male, Harlan Sprague Dawley; remark: listed apart in the source
[26] = system: Rat; conditions: dosed: Perfluorooctanoic acid, 48 mg/kg, oral, Male, Harlan Sprague Dawley; remark: listed apart in the source
[27] = system: Rat; conditions: 6 h; dosed: Perfluorooctanoic acid; 80 mg/kg; oral; Female; Harlan Sprague Dawley
[28] = system: Rat; conditions: dosed: Fluorotelomer alcohol 8+2, 12 mg/kg, oral, Male, Harlan Sprague Dawley
[29] = system: Rat; conditions: 12 h; dosed: Perfluorooctanoic acid; 80 mg/kg; oral; Female; Harlan Sprague Dawley
[30] = system: Rat; conditions: dosed: Fluorotelomer alcohol 8+2, 40 mg/kg, oral, Female, Harlan Sprague Dawley; remark: listed apart in the source
[31] = system: Rat; conditions: 3 h; dosed: Fluorotelomer alcohol 8+2; 48 mg/kg; oral; Male; Harlan Sprague Dawley
[32] = system: Rat; conditions: dosed: Perfluorooctanoic acid, 40 mg/kg, iv, Male, F344; remark: listed apart in the source
[33] = system: Rat; conditions: 1 h; dosed: Fluorotelomer alcohol 8+2; 80 mg/kg; oral; Female; Harlan Sprague Dawley
[34] = system: Rat; conditions: dosed: Perfluorooctanoic acid, 320 mg/kg, oral, Female, Harlan Sprague Dawley
[35] = system: Rat; conditions: 6 h; dosed: Perfluorooctanoic acid; 80 mg/kg; oral; Female; Harlan Sprague Dawley; remark: listed apart in the source

O=C(O)C(F)(F)C(F)(F)C(F)(F)C(F)(F)C(F)(F)C(F)(F)C(F)(F)C(F)(F)C(F)(F)F [Perfluorodecanoic acid]
Conditions | concentration in plasma [ng/mL]
[1], 1 h | 6120
[1], 192 h | 10600
[1], 2520 h | 931
[4], 12 h | 75600
[4], 1200 h | 13600
[5], 6 h | 47400
[5], 1200 h | 13100
[5], 3360 h | 3900
[6], 12 h | 83900
[6], 1200 h | 12800
[7], 12 h | 10800
[7], 1200 h | 2300

Conditions | concentration in plasma [ng/mL]
[2] | 20900
[3] | 20900
[8] | 18800

O=S(=O)([O-])C(F)(F)C(F)(F)C(F)(F)C(F)(F)C(F)(F)C(F)(F)C(F)(F)C(F)(F)F [Perfluorooctane Sulfonate]
concentration in plasma
Conditions | 5 min | 12 h | 192 h | 1200 h | 2520 h
[9] | – | 139 µg/mL | – | 35 µg/mL | –
[10] | 70.8 ng/mL | – | 4150 ng/mL | – | 1230 ng/mL

Conditions | concentration in plasma
[11] | 90 µg/mL
[12] | 88.7 µg/mL
[13] | 4670 ng/mL

O=C(O)C(F)(F)C(F)(F)C(F)(F)C(F)(F)C(F)(F)C(F)(F)C(F)(F)F [Perfluorooctanoic acid]
Conditions | concentration in plasma
[14], 0.75 h | 457 ng/mL
[14], 12 h | 2320 ng/mL
[15], 0.25 h | 63.9 µg/mL
[15], 9 h | 171 µg/mL
[15], 96 h | 0.049 µg/mL
[17], 0.75 h | 448 ng/mL
[17], 12 h | 995 ng/mL
[18], 0.25 h | 264 µg/mL
[18], 6 h | 108 µg/mL
[21], 6 h | 293 µg/mL
[21], 192 h | 84.4 µg/mL
[23], 6 h | 140 µg/mL
[23], 48 h | 0.217 µg/mL
[25], 1 h | 152 µg/mL
[25], 24 h | 230 µg/mL
[25], 864 h | 13.8 µg/mL
[26], 1 h | 98.6 µg/mL
[26], 12 h | 257 µg/mL
[26], 864 h | 9.37 µg/mL
[28], 0.75 h | 201 ng/mL
[28], 12 h | 617 ng/mL
[30], 1 h | 649 ng/mL
[30], 24 h | 76 ng/mL
[32], 0.5 h | 219 µg/mL
[32], 12 h | 28 µg/mL
[34], 6 h | 335 µg/mL
[34], 48 h | 161 µg/mL

Conditions | concentration in plasma
[16] | 658 ng/mL
[19] | 285 ng/mL
[20] | 43700 ng/mL
[22] | 70.2 µg/mL
[24] | 8260 ng/mL
[27] | 210 µg/mL
[29] | 75.7 µg/mL
[31] | 1350 ng/mL
[33] | 930 ng/mL
[35] | 159 µg/mL
